Measurements taken from the GPR68 mutational scans of Howard et al. (2025).
The least precise scores are not listed. Two further conditions of the source, in which the scores hardly spread, are not listed. In variant names, del marks residues removed and ins residues inserted between the two positions. For part of these data: How much ogerin was present is not stated here.

B1: GPR68, Q15743 (parent)
chain: MGNITADNSSMSCTIDHTIHQTLAPVVYVTVLVVGFPANCLSLYFGYLQIKARNELGVYLCNLTVADLFYICSLPFWLQYVLQHDNWSHGDLSCQVCGILLYENIYISVGFLCCISVDRYLAVAHPFRFHQFRTLKAAVGVSVVIWAKELLTSIYFLMHEEVIEDENQHRVCFEHYPIQAWQRAINYYRFLVGFLFPICLLLASYQGILRAVRRSHGTQKSRKDQIQRLVLSTVVIFLACFLPYHVLLLVRSVWEASCDFAKGVFNAYHFSLLLTSFNCVADPVLYCFVSETTHRDLARLRGACLAFLTCSRTGRAREAYPLGAPEASGKSGAQGEEPELLTKLHPAFQTPNSPGSGGFPTGRLA

Assays:
[1] = variants of: B1; test: cAMP reporter score (Enrich2 score, wild type = 0); higher = more signal; HEK293T, FACS bins
[2] = variants of: B1; test: surface expression score (Enrich2 score, wild type = 0); higher = more signal; HEK293T, FACS bins

| Variant | cAMP reporter score ([1]; pH 5.5) | cAMP reporter score ([1]; pH 6) | cAMP reporter score ([1]; pH 6, modulator: ogerin) | cAMP reporter score ([1]; pH 6.5, modulator: ogerin) | surface expression score [2] |
| --- | --- | --- | --- | --- | --- |
| R189A | -1.41 | -1.73 | -1.73 | -1.63 | -1.32 |
| R189C | -0.983 | -1.16 | -0.951 | -0.934 | -0.692 |
| R189D | -1.06 | -1.87 | -1.67 | -1.56 | -3.36 |
| R189E | -0.894 | -0.828 |  | -0.516 |  |
| R189F | -0.798 |  | -0.234 |  | -0.436 |
| R189G | -3.07 | -0.866 | -1.3 |  | -3.47 |
| R189H | 0.851 |  | -0.655 | -2.6 |  |
| R189I | -0.751 |  | -2 | -1.3 |  |
| R189K | -0.248 | 0.259 | -0.414 | -0.592 | -0.878 |
| R189L | -0.129 | -1.24 | -1.11 | -1.5 |  |
| R189M | 0.707 | -1.27 | -0.883 | -0.278 | -2.37 |
| R189N | 1.76 | 2.18 | -1.07 | 0.388 | -0.398 |
| R189P | -1.5 | -1.23 | -2.1 | -1.44 | -2.67 |
| R189Q | -0.278 | 0.332 | -1 | -1.2 | -0.998 |
| R189S | -0.126 | -0.526 | -0.964 | -1.98 | -0.322 |
| R189T | -0.222 | -0.762 | -1.9 | -1.38 | -1.43 |
| R189V | -1.01 | -0.686 | -1.35 | -0.741 | -2.02 |
| R189W | 0.355 |  | -1.07 | -0.583 | -0.418 |
| R189Y | -0.667 | -1.2 | -1.48 | -1.12 | -1.22 |
| R189_F190insGS | -1.43 | -3 | -1.84 | -1.8 | -1.96 |
| F190A | 0.613 | -0.143 | 0.949 | 0.092 | 0.205 |
| F190C | -0.407 | -0.839 | -0.295 | -0.4 | -0.916 |

| Variant | cAMP reporter score ([1]; pH 5.5) | cAMP reporter score ([1]; pH 6) | cAMP reporter score ([1]; pH 6, modulator: ogerin) | cAMP reporter score ([1]; pH 6.5, modulator: ogerin) | surface expression score [2] |
| --- | --- | --- | --- | --- | --- |
| F190E | -0.6 | -0.482 | -1.13 | -1.7 | -1.43 |
| F190H | -1.3 | -0.757 |  | -0.26 | -3.05 |
| F190I | -0.246 |  | 0.262 | 0.029 | -0.299 |
| F190K | -1.74 |  | -0.996 | -1.37 | -1.96 |
| F190L | -0.143 | 0.309 | -0.944 | -0.335 | 0.739 |
| F190M | 0.446 | 0.596 | -0.146 | -0.693 | -0.068 |
| F190N | -1.03 |  | -1.64 | -0.149 |  |
| F190P | -1.43 | -0.672 | -1.84 | -0.678 | -2.57 |
| F190Q | -1.2 | -0.454 | -0.907 | -0.806 | -1.79 |
| F190R | -1.57 | -0.527 |  | -1.76 | -1.44 |
| F190S | -1.1 | 2.16 | -0.687 | -0.573 | -1.42 |
| F190T | -0.862 |  |  | -1.37 | -2.1 |
| F190V | 0.791 | 2.02 | 1.38 | 3.07 | -0.323 |
| F190W | -0.776 | -0.882 | -0.363 | -1.4 |  |
| F190Y | -1.79 | -1.4 | -1.97 | -1.54 | -2.38 |
| F190_L191insG | -1.52 | -1.76 |  |  | -2.68 |
| L191_V192del | -1.52 | -1.12 | -1.75 | -1.36 | -3.07 |
| L191_V192insGSG | -2.07 | -1.33 | -2.4 | -1.27 | -1.2 |
| L191del | 0.007 |  | 0.765 |  |  |
| V192A | -0.597 | 0.053 | -0.328 | -0.333 | -0.066 |
| V192C | -0.519 | 0.365 | -0.206 | -1.13 | -0.73 |
| V192D | 0.227 | 0.745 | -0.297 | -0.338 | -0.694 |

| Variant | cAMP reporter score ([1]; pH 5.5) | cAMP reporter score ([1]; pH 6) | cAMP reporter score ([1]; pH 6, modulator: ogerin) | cAMP reporter score ([1]; pH 6.5, modulator: ogerin) | surface expression score [2] |
| --- | --- | --- | --- | --- | --- |
| V192E | -1.23 | -0.636 | -0.841 | -1.3 | 1.38 |
| V192F | 1.22 | 1.4 | 0.885 | 0.792 | -0.175 |
| V192G | 0.806 | 3.16 | 1.47 | 0.61 | -0.254 |
| V192H | -0.187 | -0.922 | -1.11 | -0.546 | -1.92 |
| V192I | 0.146 | 0.272 | 0.98 | 1.04 | 0.382 |
| V192K | -1.25 | -0.746 | -1.4 | -1.62 | -2.44 |
| V192L | 1.08 | 0.957 | 0.341 | 0.448 | -0.209 |
| V192M | -0.391 | -0.354 | -0.268 | -0.765 | -0.386 |
| V192P | -2.59 |  | -0.713 | -0.438 |  |
| V192Q | 1.59 |  | 0.239 | -0.51 | -1.84 |
| V192R | -1.4 | -0.851 | -0.669 | 0.024 | -2.03 |
| V192S | 0.063 | -0.397 | -0.193 | -0.763 | -0.071 |
| V192T | 0.294 | 0.312 | 0.586 | 0.293 | -0.145 |
| V192W | -0.295 | -1.46 | -1.19 | -0.045 | -0.983 |
| V192Y | -0.832 | -1.38 | -1.52 |  | -2.28 |
| V192_G193del | -1.5 | -1.46 | -1.71 | -1.24 | -2.73 |
| V192_G193insG | -1.22 | -1.18 | -1.63 | -1.18 | -2.6 |
| V192del | -0.239 |  | -2.23 | -1.39 | -2.87 |
| G193A | -0.999 | -1.08 | -1.1 | -1.73 | -2.68 |
| G193C | -0.37 | -0.898 | -1.78 | -0.79 | -0.989 |
| G193D | -1 |  | -0.746 | -2.9 | 1.19 |
